Experimental findings from publication PMC4336329 (PLoS ONE, 2015) are described below.

The campaign covered roughly 310,000 compounds. About 14,000 (4.5%) showed an effect of 50% or more. Effects have a minus sign here. Some of the results follow.
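Note: peak tail current of the secondary pulse compared with the same well before compound.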

For this test, the target named is human ether-à-go-go-related gene (hERG) potassium channel (human, UniProt Q12809). Nature of the test: primary screen, population patch clamp on CHO cells stably expressing hERG.
Chain of human ether-à-go-go-related gene (hERG) potassium channel (Q12809 whole entry, looked up): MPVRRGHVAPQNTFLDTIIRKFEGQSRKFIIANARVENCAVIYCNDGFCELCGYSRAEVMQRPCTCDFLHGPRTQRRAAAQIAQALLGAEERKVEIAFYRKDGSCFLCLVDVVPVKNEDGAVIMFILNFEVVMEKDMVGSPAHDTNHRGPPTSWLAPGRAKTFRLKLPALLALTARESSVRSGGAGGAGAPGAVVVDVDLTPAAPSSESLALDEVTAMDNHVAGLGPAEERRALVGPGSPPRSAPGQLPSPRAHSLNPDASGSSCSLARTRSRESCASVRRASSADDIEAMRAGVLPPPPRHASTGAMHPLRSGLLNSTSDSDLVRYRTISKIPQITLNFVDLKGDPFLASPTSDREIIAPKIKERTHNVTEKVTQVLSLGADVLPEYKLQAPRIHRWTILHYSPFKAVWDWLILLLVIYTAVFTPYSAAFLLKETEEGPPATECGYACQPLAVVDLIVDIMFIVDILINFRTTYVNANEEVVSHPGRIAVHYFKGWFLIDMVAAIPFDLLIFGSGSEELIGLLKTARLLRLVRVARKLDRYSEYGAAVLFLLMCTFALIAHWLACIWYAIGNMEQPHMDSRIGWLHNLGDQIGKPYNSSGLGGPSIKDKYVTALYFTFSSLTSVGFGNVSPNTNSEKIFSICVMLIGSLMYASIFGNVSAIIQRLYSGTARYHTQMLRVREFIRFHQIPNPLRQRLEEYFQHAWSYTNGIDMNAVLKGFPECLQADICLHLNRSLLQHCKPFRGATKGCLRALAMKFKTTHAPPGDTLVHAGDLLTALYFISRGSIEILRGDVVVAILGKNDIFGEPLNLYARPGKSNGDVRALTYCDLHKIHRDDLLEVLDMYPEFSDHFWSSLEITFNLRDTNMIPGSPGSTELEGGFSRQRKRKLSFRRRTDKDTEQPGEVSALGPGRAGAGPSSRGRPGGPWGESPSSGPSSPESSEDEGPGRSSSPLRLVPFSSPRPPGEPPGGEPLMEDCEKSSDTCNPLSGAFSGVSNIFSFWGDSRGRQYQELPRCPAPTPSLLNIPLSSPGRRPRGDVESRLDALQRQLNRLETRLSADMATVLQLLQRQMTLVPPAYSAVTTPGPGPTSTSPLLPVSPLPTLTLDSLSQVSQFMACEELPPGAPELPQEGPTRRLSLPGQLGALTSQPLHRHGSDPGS
In the case of `COc1ccc(CC(=O)O)cc1O`, the “hERG current change (%, negative = inhibition) at 10uM” value was 9.5%.

For the compound `CCCCCc1nnc(NC(=O)C2=COCCO2)s1`, the “hERG current change (%, negative = inhibition) at 10uM” value is on record as -8.55%.

As for `COc1ccc(OCC(=O)N/N=C(/C)Cc2ccccc2)cc1`, the “hERG current change (%, negative = inhibition) at 10uM” value is -2.86%.

In the case of `CC(=O)Nc1ccccc1C(=O)C(=O)Nc1ccc(C)c(C)c1`, the “hERG current change (%, negative = inhibition) at 10uM” value is on record as 21%.

In the case of `CCN(Cc1ccccc1)C(=O)c1ccc(CS(=O)c2ccccc2C)o1` (stereo not drawn), the “hERG current change (%, negative = inhibition) at 10uM” value is given as -43.9%.

For the compound `O=C(O)CC1(CC(=O)NCc2ccc(Cl)cc2)CCCCC1`, the “hERG current change (%, negative = inhibition) at 10uM” value is listed as 8.75%.

As for `O=C(O)[C@H](Cc1ccccc1)N1C(=O)c2c(Cl)c(Cl)c(Cl)c(Cl)c2C1=O`, the “hERG current change (%, negative = inhibition) at 10uM” value is listed as 2.13%.

Turning to `COC(=O)c1c(NC(=O)/C=C/c2ccco2)sc2c1CCC2`, the “hERG current change (%, negative = inhibition) at 10uM” value was found to be 17.6%.

On to `CCN(C(=O)COc1ccccc1[N+](=O)[O-])C1CCS(=O)(=O)C1` (stereo not drawn), for which the “hERG current change (%, negative = inhibition) at 10uM” value was found to be 0.104%.

In the case of `CCOC(=O)CSc1nc2sccc2c(=O)[nH]1`, the “hERG current change (%, negative = inhibition) at 10uM” value is listed as 5.88%.

As to `Cc1sc(NC(=O)C2CCCO2)c(C(N)=O)c1C` (stereo not drawn), the “hERG current change (%, negative = inhibition) at 10uM” value amounted to 15.4%.

Regarding `O=c1[nH]c(CN2CCN(c3ccccc3)CC2)nc2ccccc12`, the “hERG current change (%, negative = inhibition) at 10uM” value came to 1.55%.

As for `COc1cc(C)ccc1OCC(=O)OCC(=O)c1cc(C)n(CC2CCCO2)c1C` (stereo not drawn), the “hERG current change (%, negative = inhibition) at 10uM” value was -21.7%.

For the compound `O=C1CCCN2N=C(SCC(=O)Nc3ccc([N+](=O)[O-])cc3)SC2=N1`, the “hERG current change (%, negative = inhibition) at 10uM” value is -5.23%.

As for `COc1ccc(Cl)cc1NC(=O)CSc1nc(NS(=O)(=O)c2ccc(C)cc2)cc(=O)[nH]1`, the “hERG current change (%, negative = inhibition) at 10uM” value is listed as 4.52%.

For `COc1ccc(C)cc1NS(=O)(=O)c1ccc(NC(=O)CN(c2cc([N+](=O)[O-])ccc2C)S(C)(=O)=O)cc1`, the “hERG current change (%, negative = inhibition) at 10uM” value is recorded as 0.466%.

`COc1ccc(C2C(C(=O)Nc3ccc(OC)c(OC)c3)c3ccccc3C(=O)N2C)cc1` (stereo not drawn): the “hERG current change (%, negative = inhibition) at 10uM” value turned out to be 27.7%.

For `Cn1c(C(=O)OCC(=O)NCC2CCCO2)cc2sccc21` (stereo not drawn), the “hERG current change (%, negative = inhibition) at 10uM” value came to 0.355%.

Take `Cc1ccc(Cn2nnc3c(=O)n(Cc4cc(C)ccc4C)cnc32)cc1`: the “hERG current change (%, negative = inhibition) at 10uM” value is recorded as 10.7%.

On to `O=S(NC1CCCCC1)C12CC3CC(CC(C3)C1)C2` (stereo not drawn), for which the “hERG current change (%, negative = inhibition) at 10uM” value is reported as -12.4%.

For `O=C(CCCC(=O)N1CCN(c2ccccc2F)CC1)N1CCN(c2ccccc2F)CC1`, the “hERG current change (%, negative = inhibition) at 10uM” value is listed as -25.2%.

Take `CCN(CC)C(=O)C1=C(C)NC(=S)NC1c1ccc(C)s1` (stereo not drawn): the “hERG current change (%, negative = inhibition) at 10uM” value is -6.31%.

For the compound `O=S(=O)(NCc1ccccc1)c1cccc2nsnc12`, the “hERG current change (%, negative = inhibition) at 10uM” value is listed as 5.77%.

Regarding `NC1=NC[C@@H](Cc2ccc(O)cc2)N1CC1CCCCC1`, the “hERG current change (%, negative = inhibition) at 10uM” value is listed as 19.2%.

Take `CCOC(=O)c1ccc(NC(=O)COc2ccccc2CNC2CCCC2)cc1.Cl`: the “hERG current change (%, negative = inhibition) at 10uM” value is given as -78.1%.

Take `CCC(C(=O)NC1C(=O)N2C(C(=O)O)=C(CSc3nnc(C)s3)CSC12)c1ccccc1` (stereo not drawn): the “hERG current change (%, negative = inhibition) at 10uM” value was 15.4%.

Regarding `COc1ccc(N/C(N)=N/c2nc(C)cc(C)n2)c(OC)c1`, the “hERG current change (%, negative = inhibition) at 10uM” value is -26.4%.

With `CSCC[C@H](NC(=O)c1cccs1)C(=O)N1CCC2(CC1)NCCc1[nH]cnc12`, the “hERG current change (%, negative = inhibition) at 10uM” value stood at 10.2%.

Turning to `COc1ccccc1CN1CCCC(C(=O)N2CCCCC2)C1.O=C(O)C(=O)O` (stereo not drawn), the “hERG current change (%, negative = inhibition) at 10uM” value is 10.6%.

As to `CC(=O)Nc1ccc2nc(NC(=O)CCc3ccccc3)sc2c1`, the “hERG current change (%, negative = inhibition) at 10uM” value turned out to be 14.3%.

In the case of `Cc1c(O)c(CN2CCCC2)cc2c1oc(=O)c1ccccc12`, the “hERG current change (%, negative = inhibition) at 10uM” value is recorded as -29.9%.

As for `Cn1cnnc1SCC(=O)Nc1cc(S(=O)(=O)N2CCCCC2)ccc1Cl`, the “hERG current change (%, negative = inhibition) at 10uM” value is on record as -0.0108%.

Take `Cc1ccc(NC(=S)NNC(=O)c2ccco2)cc1`: the “hERG current change (%, negative = inhibition) at 10uM” value turned out to be 7.98%.

As for `CC(C)(C)C(=O)Oc1ccc2cc(-c3ccc4ccccc4n3)c(=O)oc2c1`, the “hERG current change (%, negative = inhibition) at 10uM” value is given as -10.5%.

As to `CNC(=O)C1C(=S)NC(N)=C(C#N)C1c1ccccc1` (stereo not drawn), the “hERG current change (%, negative = inhibition) at 10uM” value turned out to be 8.83%.

Take `Cc1ccc(S(=O)(=O)NCc2nc3nc(C)cc(C)n3n2)c(C)c1`: the “hERG current change (%, negative = inhibition) at 10uM” value is reported as -4.75%.

Take `NC(=O)CN1C(=O)/C(=c2\sc3nc(=O)c(Cc4ccccc4)nn3c2=O)c2ccccc21`: the “hERG current change (%, negative = inhibition) at 10uM” value worked out at 10.1%.

With `N/C(=N\OC(=O)CCCc1ccccc1)c1ccccn1`, the “hERG current change (%, negative = inhibition) at 10uM” value came to 20.1%.

On to `CC(C)C(C(=O)NC(C)(C)C)N1C(=O)c2ccccc2C1=O` (stereo not drawn), for which the “hERG current change (%, negative = inhibition) at 10uM” value stood at 2.52%.

`CCOC(=O)c1ccc(NC(=O)NC2CC3CCC(C2)N3Cc2nnnn2Cc2ccco2)cc1` (stereo not drawn): the “hERG current change (%, negative = inhibition) at 10uM” value is on record as -21.1%.

For the compound `NC(=O)c1cc2ccccc2o/c1=N/NC(=O)c1cccs1`, the “hERG current change (%, negative = inhibition) at 10uM” value is reported as -48.3%.

On to `O=C(O)c1ccc(OCc2ccc(C(=O)O)o2)cc1`, for which the “hERG current change (%, negative = inhibition) at 10uM” value stood at 22.5%.

Turning to `COc1ccccc1CC(=O)N1CCC(n2nccc2NC(=O)C2CCOC2)CC1` (stereo not drawn), the “hERG current change (%, negative = inhibition) at 10uM” value came to 4.83%.

Turning to `CCOC(=O)C1(CCc2ccccc2)CCN(C(C)CSC)CC1` (stereo not drawn), the “hERG current change (%, negative = inhibition) at 10uM” value is on record as -66.6%.

`Cc1ccc(N2C(=O)C(Cl)=C(N3CCN(C)CC3)C2=O)c(C)c1`: the “hERG current change (%, negative = inhibition) at 10uM” value is 3.06%.
